PubChem BioAssay AID1508624 (National Center for Advancing Translational Sciences (NCATS), 2021)
Out of some 48,000 compounds screened, about 120 (0.25%) were called active. About 4% were inconclusive and are not listed. Calls come from the whole dose curve; as a rule, active = well fitted activation curve with a large enough effect; inconclusive = small, poorly fitted or top-dose-only effect, or another doubt; inactive = no such curve, though single readings can be large or run the other way. The list shows a part of the results.

Test: Primary qHTS for Identification of Small Molecule Activators of Huntingtin-Antisense Promoter Activity; note: nearly all actives have a fitted effect of over 55% in size
Settings: HEK293 HTT-AS promoter firefly luciferase reporter, 24 h; series mostly up to 57.5 µM; activity change, positive = activation: at the top concentration
Summary of the method: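 Luminescence was read after Dual-Glo reagent and a 10 min room-temperature incubation. Values were normalized to vehicle (0% activity) and zero RLU (-100% activity). Reporter HEK293 cells had been exposed to compounds (up to 57.5 uM final) for 24 h.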

Activity change, positive = activation, inactive:
O=C(Nc1ccc2c(c1)CCCN2C(=O)c1cccs1)c1c(F)cccc1F -37.4%
C[C@H](CCC(=O)O)[C@H]1CC[C@H]2[C@@H]3C(=O)C[C@@H]4CC(=O)CC[C@]4(C)[C@H]3CC(=O)[C@]12C -5.26%
O=C(Cn1cc(SCc2ccccc2)c2ccccc21)N1CCCCC1 17.6%
COc1ccc(-c2nc(C)c(CCNC(=O)C(=O)Nc3c(C)cccc3C)s2)cc1OC 1.08%
CCc1ccc(CNC(=O)CN(c2ccc(C)cc2)S(=O)(=O)N(C)C)cc1 -29.3%
COc1ccc(OC)c(CCNC(=O)C2CCN(c3ncnc4c3nc3n4CCCCC3)CC2)c1 -8.33%
CSc1ccc(CNC(=O)C2CCN(c3nnc(-n4cccc4CNc4ccc(C)cc4)s3)CC2)cc1 -36.2%
N#Cc1c(-n2ncnc2-c2ccc(Br)cc2)sc2c1CCCCC2 -17.2%
Cc1cc(C)cc(NC(=O)CCCN2C(=O)COc3ccc(C)cc32)c1 -23.5%
Nc1cc(=O)nc(SCC(=O)Nc2ccc(F)cc2)n1-c1ccccc1Cl -4.38% [at 11.5 µM, percent change from vehicle, -100% = no light]
COc1ccc(C)cc1NC(=O)C1CCN(S(=O)(=O)c2ccc3[nH]c4c(c3c2)CCCCC4)CC1 -8.36%
O=C(COc1ccc([N+](=O)[O-])cc1)NCC1(N2CCOCC2)CCCCC1 -12%
Oc1c(C(c2ccccc2F)N2CCCCC2)sc2nc(-c3ccco3)nn12 (stereo not drawn) -7.37%
CC(=O)c1cccc(NC(=O)CSc2nc(=O)n(Cc3cccnc3)c3c2CCC3)c1 -3.15%
Cc1ccc(NC(=O)c2cn3c4c(ccc(Cl)c4c2=O)OC(C)C3)c(C)c1 (stereo not drawn) -7.04%
CC(C)CC(=O)Nc1ccc(S(=O)(=O)Nc2cc3c(cc2N2CCOCC2)n(C)c(=O)c(=O)n3C)cc1 -16.1%
O=C(CCc1cn(Cc2ccccc2Cl)c2ccccc12)NC1CCCCC1 -25.6%
Cc1c(C(=O)N2CCC(C)CC2)c(S(=O)(=O)NCc2ccc(Br)cc2)c(C)n1C -11.9%
CC(C)c1ccc(NC(=O)C2CCN(c3nc(-c4ccc(C(C)C)cc4)no3)CC2)cc1 -93.7%
CCCCc1nc2ccccc2n2c(-c3ccc(OC)cc3)c3c(=O)n(C)c(=O)n(C)c3c12 -2.61%
Cc1ccccc1Nc1c(-c2ccc(Cl)s2)nc2c(C)cccn12 29.1%
Cc1nc2sccn2c(=O)c1CCN1CCC(=C(c2ccc(F)cc2)c2ccc(F)cc2)CC1 -10.9%
COc1ccc(-n2ncc(C(=O)N3CCN(c4ncccn4)CC3)c2C2CCN(C(=O)OC(C)(C)C)CC2)cc1 1.71%
Cc1ccc(C)c(NC(=O)CCc2nc3cccnc3n2Cc2cccs2)c1 -18.1%
CCN(CC)C(=O)CSc1nc(-c2ccccc2)cc(-c2ccc(OC)cc2)c1C#N -3.86%
COc1cccc(NC(=O)Cn2c(=O)n(-c3ccccc3)c(=O)c3c4c(sc32)CCCC4)c1 -5.29%
Cc1ccccc1-c1ccnc2c(-c3ccc(F)cc3)c(C)nn12 -40.7%
Cc1ccc(-c2cc(N)n(Cc3cccc(Cl)c3)n2)cc1 -16.4%
COc1ccccc1-c1noc(-c2ccc(NCc3ccccc3)c([N+](=O)[O-])c2)n1 -9.2%
Cc1cc2nc(NC(=O)c3ccc(S(=O)(=O)N4CCOCC4)cc3)sc2cc1C -6.97%
COc1ccc(C)cc1NC(=O)CN(C)S(=O)(=O)c1ccc2c(c1)CCCN2C(C)=O -5.22%
COCCCN1CN=C(NS(=O)(=O)c2ccc(NC(C)=O)cc2)NC1 -11.4%
CCOC(=O)c1sc2ccccc2c1S(=O)(=O)N1CCN(c2ccccc2F)CC1 -27.8%
COc1ccc(N2Cc3cccc(C(=O)Nc4ccc(C)cc4)c3C2=O)cc1 -8.55%
COc1cc(OC)c(NC(=O)Cn2nc(C)n3cccc3c2=O)cc1Cl -0.53%
CCC(=O)N1CCc2cc(S(=O)(=O)N3CCN(c4ccccc4F)CC3)ccc21 -1.43%
CC1=C(c2cccc(Cl)c2)S(=O)(=O)NC1=NCc1ccccc1C -16.9%
COc1ccc(C)cc1NC(=O)CN1C(=O)CSc2ccc(S(=O)(=O)N3CCCC3)cc21 -21.3%
CCN(CC)S(=O)(=O)c1ccc2c(c1)c(=O)c(C(=O)NCCc1ccc(OC)c(OC)c1)cn2C 7.1%
COc1cccc(CN(C(=O)c2oc3ccc(Br)cc3c2C)C2CCS(=O)(=O)C2)c1 (stereo not drawn) -37.9%
COC(=O)CNC(c1ccccc1)c1cc(Br)ccc1NC(=O)c1ccc(Cl)cc1 (stereo not drawn) -16.4%
Cc1nc2ccn(Cc3ccccc3)c(=O)c2cc1C(=O)Nc1ccc(F)cc1Cl 0.609%
CCC(=O)N1CCc2cc(Br)cc(S(=O)(=O)NCc3cccc(OC)c3)c21 -11.4%
CCOC(=O)c1ccccc1NC(=O)c1c(-c2ccccc2)noc1C -30.3%
CCOC(=O)c1c(NC(=O)CSc2cn(CCNC(=O)c3ccc(OC)c(OC)c3)c3ccccc23)sc2c1CCC2 -26%
Cc1cn2c(=O)cc(COC(=O)c3cccc(NC(=O)COc4ccccc4)c3)nc2s1 -27.7%
Cc1cccc(N2CCN(c3nc4ccc(C(=O)c5ccccc5)cc4n4cnnc34)CC2C)c1 (stereo not drawn) -3.46%
CC(C)Oc1ccc(CNC(=O)c2ccc(CS(=O)Cc3ccccc3Cl)o2)cc1 (stereo not drawn) -30.5%
O=C1c2c(O)ccc(O)c2C(=O)c2c(NCCNCCO)ccc(NCCNCCO)c21
COc1ccc(OC)c(NC(=O)c2oc3c(c2C)-c2nn(Cc4ccc(Cl)cc4)cc2CC3)c1 -11.3%
Cc1ccc2c(CC(=O)N3CCN(c4cccc(Cl)c4)CC3)coc2c1C -13.8%
CC(=O)Nc1ccc(NC(=O)Cn2cc3c(n2)CCCCC3)cc1 2.24%
Cc1cccc(OCCSc2nc3ccc(NC(=O)COc4ccccc4C)cc3s2)c1 -5.75%
CC(=O)N1CCc2c(sc3c2c(=O)n(Cc2ccccc2)c(=O)n3Cc2cccc(Cl)c2)C1 -48.3%
COc1cc(-c2noc(-c3ccc(N4CCCC4)c([N+](=O)[O-])c3)n2)cc(OC)c1OC -6.29%
CCC(=O)N1CCc2cc(CNC(=O)Cc3ccc(OC)c(OC)c3)ccc21 -17.5%
Cc1ccccc1Cn1cnc2c(oc3ccccc32)c1=O 12.5%
COc1cc(C(=O)N2CCc3c([nH]c4ccccc34)C2c2ccc(F)cc2)cc(OC)c1OC (stereo not drawn) -32.4%
CC1=Nc2cc(C(=O)NC3CCC(C)CC3)ccc2Sc2c(C)ccc(C)c21 (stereo not drawn) 5.71%
COc1ccc(NC(=O)c2ccc3c(c2)N(Cc2cccc(Cl)c2)C(=O)c2ccccc2S3(=O)=O)cc1Cl -15.7%
CCN(CC)C(=O)Cn1ncc2c([nH]c3ccc(C)cc32)c1=O -5.83%
CCOc1ccccc1CNC(=O)C1CCN(C(=O)N2CCOc3ccc(Cl)cc32)CC1 -28.8%
Cc1ccc(-n2nc(C(=O)NCc3ccc(F)cc3Cl)c3c4ccccc4n(C)c3c2=O)cc1 8.63%
FC(F)(F)c1ccc2c(c1)ncc1c(-c3ccccc3)nn(-c3ccccc3)c12 -7.45%
Cc1nc(-c2cccc(F)c2)sc1CCNC(=O)C(=O)Nc1ccc2c(c1)OCCO2 -32.6%
Cc1ccccc1C(=O)Nc1ccccc1-c1nc(-c2ccccc2)no1 11.1%
CCc1nc2nc(C)c(NS(=O)(=O)c3ccc(F)c(C)c3)c(=O)n2[nH]1 -12.9%
Cc1ccc(NC(=O)CSc2nc3ccccc3n2CC(=O)N(C)C2CCCCC2)cc1C -12.6%
CC(C(=O)Nc1ccccc1)n1nnc2sc3c(c2c1=O)CCCC3 (stereo not drawn) -24.5%
Cc1cccc(Cn2c(=O)n(Cc3ccccc3)c(=O)c3sc4ccccc4c32)c1 -2.13%
CCCCn1c(CNC(=O)C23CC4CC(CC(C4)C2)C3)nnc1SCC(=O)Nc1ccc(F)cc1 -34%
Cc1cccc(NC(=O)Nc2nnc(N3CCCC3)s2)c1 0.656%
Cc1cc(C(=O)NCc2ccccc2)c2c(C)nn(-c3cccc(Cl)c3C)c2n1 -15.9%
Cc1ccc(NC(=O)C2CCCN2S(=O)(=O)c2ccc3nc(-c4ccccc4)[nH]c3c2)cc1C (stereo not drawn) -26%
CC(C)C(=O)Nc1cccc(C(=O)Nc2nnc(C(F)(F)F)s2)c1 15.1%
CCOc1ccccc1NC(=O)CCc1c(C)nc2cc(-c3ccccc3)nn2c1C -65.8%
Cc1ccc(NC(=O)CN(c2ccc(C)cc2)S(=O)(=O)c2cccc3nonc23)cc1 -14%
CCOCCCn1c(=N)c(C(=O)NCc2ccccc2)cc2c(=O)n3ccccc3nc21 0.21%
COc1cccc(NC(=O)Cn2c(=O)n(CCc3cccc(C)c3)c(=O)c3ccccc32)c1 -7.63%
Cc1cccc(NC(=O)c2c(NC(=O)c3ccco3)sc3c2CCC(C)C3)c1 (stereo not drawn) -8.63%
COc1cccc(CNC(=O)c2ccc3c(c2)nc2n3CCC(C)C2)c1 (stereo not drawn) 29.5%
COc1ccc(-n2nc(-c3ccc(C)cc3)c3cnc4cc(F)c(F)cc4c32)cc1 -9.72%
Cc1ccc(NC(=O)Cn2nc(-c3ccccc3)nc(Cc3ccccc3)c2=O)cc1 -3.09%
CCCN(CCC)C(=O)c1nn(C)c2c1CSc1ccccc1-2 2.44%
O=C(NCc1ccccc1Cl)c1ccc(-n2cnc3cccnc32)cc1 -9.1%
CCOc1ccccc1NC(=O)Cn1nc(N2CCN(c3ccccc3)CC2)ccc1=O -22.7%
Cc1ccc(CNC(=O)CSCc2nc(-c3cccc(C)c3)oc2C)cc1 -12.5%
Cc1cn2c(=O)c(S(=O)(=O)NCc3ccc(F)cc3)c(C)nc2s1 -3.2%
O=C(CCC1N=C2c3ccccc3N=C(SCC(=O)NCCc3ccccc3)N2C1=O)NCc1ccc(F)cc1 (stereo not drawn) -0.607%
CCC(NC(=O)Nc1cccc(C)c1)c1c(-n2cccc2)sc2c1CCN(C)C2 (stereo not drawn) -5.58%
CCCN(CCC)C(=O)Cn1c(=O)n(-c2ccc(Cl)c(Cl)c2)c(=O)c2c(C)c(C(=O)N(C)C)sc21 -13.6%
CCOc1ccc(OCC)c(NC(=O)C2CCCN(S(=O)(=O)c3ccc(C)cc3)C2)c1 (stereo not drawn) -14.4%
CCOc1ccc(-c2nnc(SCC(=O)N(CC)c3cccc(C)c3)o2)cc1 -28%
